To fix the notation:
T1: UNK ZnF1-6 (called full-length) (human, UniProt Q9C0B0 30-357)
T1 sequence: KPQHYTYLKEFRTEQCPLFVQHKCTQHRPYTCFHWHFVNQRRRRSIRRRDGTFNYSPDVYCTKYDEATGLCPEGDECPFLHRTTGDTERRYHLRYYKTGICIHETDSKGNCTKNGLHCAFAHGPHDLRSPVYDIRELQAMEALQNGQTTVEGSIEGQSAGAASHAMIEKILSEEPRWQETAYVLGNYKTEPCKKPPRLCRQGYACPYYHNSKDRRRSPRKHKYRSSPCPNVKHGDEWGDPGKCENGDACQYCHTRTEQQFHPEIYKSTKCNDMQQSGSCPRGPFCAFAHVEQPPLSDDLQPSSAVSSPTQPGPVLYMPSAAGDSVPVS

B1: chr14:21351797:21351898:-|3pUTR|ENSG00000092201|msi1|FALSE|unique (ssRNA)
RNA: GGGAGUUCUACAGUCCGACGAUCGAGGAAGGCUCAAAGGAGUCAACAUUUAUAUCUGGAAGGGACAAGUCAUGCCUUGGGCCUAGAAUACCCUGAUGAGAAAAGAGAAGAGGAAGGGAGGCCAUAUCUACAACACAGCCUCUCCAACAGAGGAUUGAGCAUCA
B2: chr6:13639604:13639705:-|CDS|ENSG00000010017|unk|total|mutant (ssRNA)
RNA: GGGAGUUCUACAGUCCGACGAUCGACCGUGAAGUACGAUGUUUGGGAGGCCGAAGUCCAAAGUCUCAAGACAGUUAUCCUGUCCGUCCUCGACCUUUCCGCCGUCCAAGUAUGAGCCCCAGCCAUGGAAUGAAUAUCCACAAUCAACAGAGGAUUGAGCAUCA
B3: chrX:101163201:101163302:+|3pUTR|ENSG00000102384|unk|FALSE|unique (ssRNA)
RNA: GGGAGUUCUACAGUCCGACGAUCUCAUCAUCAGGCUCUGCGUUCUACCAAAUUGUAUGUAAAAAGACACAUCUGUUUUGUGGUAGGAUUUUUUCACAUUUUUGGGUACUAUGAGCUGCAUUGAUGGAAGACAGCAGGCAAUAUCAACAGAGGAUUGAGCAUCA
B4: chr10:127452233:127452334:+|3pUTR|ENSG00000150760|msi1|total|mutant (ssRNA)
RNA: GGGAGUUCUACAGUCCGACGAUCGUAUAUAUGAUGGUUCUCCGAACUUGUUUUAAUUUUUGUGGUCCUUCCGUUUAUUAUAACCGGCGUCCACCAAUGAUUAUCCAUAUGUGUUCUUAAUUUUUAACUGCUGGAAGUGUUAAACAACAGAGGAUUGAGCAUCA
B5: chr2:61188134:61188237:-|CDS|ENSG00000115464|unk|FALSE|unique (ssRNA)
RNA: GGGAGUUCUACAGUCCGACGAUCAUCUCUCAGUUGUGGCCAUUCCAGAGGACUCUUUAGUCAUAUGCAGCAACAUGACAUUUUAGAUACCCUGUGUAGGACCAUUGAAUCUACAAUCCAUGUCGUCACAAGGAUAUCUGGCAACAACAGAGGAUUGAGCAUCA
B6: chr1:183143318:183143419:+|3pUTR|ENSG00000135862|msi1|total|mutant (ssRNA)
RNA: GGGAGUUCUACAGUCCGACGAUCACAUCCUGUGCCAAAGGUAUUGGUCAUUCCGAAUGUCGGCCGCCAUCCAUCAGUGCUUUCCGUUAUUAUGAGUGCCGGACACUGAGCCAUCCGUGGGUCAGGAUGCAAUUAUUUAUAAAACAACAGAGGAUUGAGCAUCA
B7: ENSG00000141012:stop:overlap|stop_codon|ENSG00000141012|stop_codon|NA|stop_codon (ssRNA)
RNA: GGGAGUUCUACAGUCCGACGAUCAGUUAGGGAAGUGUCUGACACCUCCAGAAUCCAUUCCCAAGAAGUGCCUCUGGUCCCACUAGCACCUGCGCAGACUCAGGCCAGGCCUAGAAUCUCCGGUUGGCCCUGCAAGUGCCUGGACAACAGAGGAUUGAGCAUCA
B8: ENSG00000099250:stop:overlap|stop_codon|ENSG00000099250|stop_codon|NA|stop_codon (ssRNA)
RNA: GGGAGUUCUACAGUCCGACGAUCCAAUUCACGGAGAAAUGUGGUCAUCUGGAAAAGGAGUCUGCUCCCUGGAUGCGAAUCUGUAGCCUGGAUUCUGGAAGGCGAUGCUGAUUUAGGAGGUGGAGUGAAUGGAGAAUUGAAAAGCAACAGAGGAUUGAGCAUCA
B9: chr6:73594753:73594854:-|3pUTR|ENSG00000119899|unk|FALSE|unique (ssRNA)
RNA: GGGAGUUCUACAGUCCGACGAUCGGUUCACAUACCUGCCUGCUAGUCGGGCAACAUGAAGUAGGACAGUUCUGUUGAUUUUUUAGGGCCAUACUAAAGGGAAUGAGCUGAAACAGACCUCCUGAUACCUUUGCUUAAUUAAACCAACAGAGGAUUGAGCAUCA
B10: chr17:81921741:81921842:-|3pUTR|ENSG00000197063|msi1|total|mutant (ssRNA)
RNA: GGGAGUUCUACAGUCCGACGAUCAAUUAUAUGUUUAAAAGUUAAAGAAAAAAGAGCUGCAGAGUAUUUAUAAAACUGUCUUUCCGAAAAAAAACAAGCAAGAAGACCAUUUGACCAUAUGAAUGGAAAAGGGAAGAAAGUAUACAACAGAGGAUUGAGCAUCA
B11: chr2:47509289:47520906:-|three_prime_utr|ENSG00000184261|control|control|control (ssRNA)
RNA: GGGAGUUCUACAGUCCGACGAUCCGGCAACCCCAAAGCAUAUGGUGCAACUUUUCGUGGCUCUGAAUUACCUCCUCAGCAUUUAGAAUCCUGGCCCAGCCUAGCAGCUUCCUUCUGGUCGUCAGAAGUGAUAUAGUCACAGUUCAACAGAGGAUUGAGCAUCA
B12: chr9:93565116:93565217:+|3pUTR|ENSG00000048828|unk|FALSE|unique (ssRNA)
RNA: GGGAGUUCUACAGUCCGACGAUCAUAUACAAUACAUCAUACAUACUUUACAAGCAAGUUAAAUGGAGAUAAAGUUGAAAUCAUAGAAGAUGCAAAUGACCUUUCAAAAUCAACACAAUGUGUUCUGAAACUUUCGUGACUAAUCAACAGAGGAUUGAGCAUCA
B13: ENSG00000136451:be:win_2051|3pUTR|ENSG00000136451|bound_else_gene|NA|bound_elsewhere_windowed (ssRNA)
RNA: GGGAGUUCUACAGUCCGACGAUCUUGUCAUAAUAAAAUGCAUUUCAGAGAAUAUGCAUUUUACCUUUGGGAAUAUGUUAAUUUCAGGCAGCAUUCCCUAUGGGAAAGGUGAUACCAGCUCUGAUAUGCAAAGCAUAUGAUAAUCAACAGAGGAUUGAGCAUCA
B14: chr7:77627539:77627665:+|CDS|ENSG00000127947|unk|total|mutant (ssRNA)
RNA: GGGAGUUCUACAGUCCGACGAUCAAUAUUUCAACAGCAAGUGCCACAGUUUCUGCUGCCACCCGUACUGAAAGCAUUUCUACCCGGAAAGUAUUGCCAAUGUCCAUUGCCCGACAUAAUACCGCAGGAACAACACAUUCAGGUCAACAGAGGAUUGAGCAUCA

This is one part of the list.

The target in this assay is T1, UNK ZnF1-6 (called full-length). Kind of assay: nsRBNS (natural sequence RNA bind-n-seq); RBNS binding buffer (assumed for nsRBNS): 25 mM Tris pH 7.5, 150 mM KCl, 3 mM MgCl2, 0.01% Triton X-100, 500 ug/ml BSA, 20 U/ml SUPERase-In, 4 C; UNK is unkempt and MSI1 is Musashi-1; names of the RNAs are library labels; protein concentration not given here; high values mean tight binding.
B1 displayed a binding signal of 1.55 enrichment R.
As for B2, the figure is 0.498 enrichment R; as for B3, 0.362 enrichment R.
Molecule B4 had a binding signal of 0.787 enrichment R.
B5 returned a binding signal of 0.555 enrichment R.
B6 registered a binding signal of 0.549 enrichment R.
As for B7, the figure is 0.473 enrichment R; as for B8, 0.76 enrichment R.
In turn, B9 came in with a binding signal of 0.656 enrichment R.
As for B10, the figure is 0.865 enrichment R; as for B11, 1.1 enrichment R; as for B12, 0.404 enrichment R.
The value for B13 was 0.233 enrichment R; that for B14 was 0.539 enrichment R.
